Paper PMC12136788
This is one part of the list.

T1: UNK ZnF1-6 (called full-length) (human, UniProt Q9C0B0 30-357)
T1 sequence: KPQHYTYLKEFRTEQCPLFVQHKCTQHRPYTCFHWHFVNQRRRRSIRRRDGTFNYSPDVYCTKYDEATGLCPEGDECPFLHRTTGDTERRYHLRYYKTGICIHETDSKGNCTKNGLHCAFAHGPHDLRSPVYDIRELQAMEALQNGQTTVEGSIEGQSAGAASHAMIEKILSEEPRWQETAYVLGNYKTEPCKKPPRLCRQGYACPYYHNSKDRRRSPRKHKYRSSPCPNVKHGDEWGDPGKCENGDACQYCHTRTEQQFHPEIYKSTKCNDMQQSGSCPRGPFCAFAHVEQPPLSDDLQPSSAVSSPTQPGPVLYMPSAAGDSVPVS

B1: chr11:69651733:69651797:+|3pUTR|ENSG00000110092|msi1_unk|FALSE|overlapping (ssRNA)
RNA: GGGAGUUCUACAGUCCGACGAUCAAAACAUUUUAAAAACAUAGAAAAAUUCAGCAAACCAUUUUUAAAGUAGAAGAGGGUUUUAGGUAGAAAAACAUAUUCUUGUGCUUUUCCUGAUAAAGCACAGCUGUAGUGGGGUUCUAGCAACAGAGGAUUGAGCAUCA
B2: chr15:38352922:38353023:+|3pUTR|ENSG00000166068|msi1|total|mutant (ssRNA)
RNA: GGGAGUUCUACAGUCCGACGAUCUACAUAUAAAUUUAUUUCUUUUGCAGAGCAUUAUAUUACUGGAUGUUUAAUUUACAAAACCGUUGGGUAAAUGUUCCAACAAACUUUAAAGUACCUUGAAGUCAAAUUGUCUGUUUUUGUCAACAGAGGAUUGAGCAUCA
B3: chr7:137879121:137879144:-|3pUTR|ENSG00000182158|msi1_unk|total|mutant (ssRNA)
RNA: GGGAGUUCUACAGUCCGACGAUCUAAUCCCCAACCUACUUUCCGUUUUUUUGUUUUUUUUUUAUGGUUAAAAGUAACUUUUGCCGUUUAAAAAAAUCUUUCCUCUUUCAUAUAAAUAAGAAGUGGAAAUUGCCUUUUUAUUGUCAACAGAGGAUUGAGCAUCA
B4: chr9:121988909:121989747:-|three_prime_utr|ENSG00000175764|control|control|control (ssRNA)
RNA: GGGAGUUCUACAGUCCGACGAUCACCUCUCCUUAUCGACAAGCUCAAGUUUGAUAUUCGUCUGUAUGUCUUACUCAAGUCCUUAGACCCCUUAGAGAUUUAUAUAGCCAAAGACGGACUCUCUAGGUUUUGUACCGAGCCAUACAACAGAGGAUUGAGCAUCA
B5: chr11:107429260:107429366:-|CDS|ENSG00000152404|unk|total|mutant (ssRNA)
RNA: GGGAGUUCUACAGUCCGACGAUCGAGGAAACCCACAUAUUCAGAUAAAGCACAAAAUUGUCAAGAAAGCCGAGAAUCAGACUCCGUAAAAUAUGGUAACAGUUCAAGGGACCGAUAUGCUACAACAGAUACUGCAAAAAACCGCAACAGAGGAUUGAGCAUCA
B6: chr21:18281039:18281221:-|CDS|ENSG00000154646|control|control|control (ssRNA)
RNA: GGGAGUUCUACAGUCCGACGAUCACCUCUCCUCAAACAGUCCCUCGAUUAAUAGAUGAAAUUGUCAUAAACCCUCAUUACAAUAGGCGAAGAAAGGACAACGACAUUGCCAUGAUGCAUCUGGAAUUUAAAGUGAAUUACACACAACAGAGGAUUGAGCAUCA
B7: chr2:5695263:5695412:+|3pUTR|ENSG00000176887|msi1_unk|FALSE|overlapping (ssRNA)
RNA: GGGAGUUCUACAGUCCGACGAUCUGGUGAUAUAGACCUCAGAGCUGUUAUCUUAGUUUAAAGAUUGUAUAUGUACUGUACUAUAGUAGGACUUUAUGUAUCUCAUACGCUGUGAUGUGGAUGGGGCCCCAGAUGGAAGGUUUGCAACAGAGGAUUGAGCAUCA
B8: chr2:216672374:216672548:-|3pUTR|ENSG00000115461|msi1|FALSE|unique (ssRNA)
RNA: GGGAGUUCUACAGUCCGACGAUCUUUUUCUUUUUUUUUUUGAAGACAGCAAUAACCACAGUACAUAUUACUGUAGUUCUCUAUAGUUUUACAUACAUUCAUACCAUAACUCUGUUCUCUCCUCUUUUUUGUUUUCAACUUUAACAACAGAGGAUUGAGCAUCA
B9: ENSG00000070961:be:win_3951|3pUTR|ENSG00000070961|bound_else_gene|NA|bound_elsewhere_windowed (ssRNA)
RNA: GGGAGUUCUACAGUCCGACGAUCAUUAGCAGAGCUUUAGUUUAUCUCAGUCCUGGAUGGGAGAGAGAGGGAGGAGUAAAACUGGGCAAGACAAAGAGCCCUGGAUCGUUGAAUUGAUAGUUUAAUUUCUGCUGUUGGCUGUUACAACAGAGGAUUGAGCAUCA
B10: ENSG00000107863:be:win_5001|CDS|ENSG00000107863|bound_else_gene|NA|bound_elsewhere_windowed (ssRNA)
RNA: GGGAGUUCUACAGUCCGACGAUCAAAUUCUGAAGGAAGUGAAUUAAGUUGCACCGAGGGAAGUUUAACAUCAAGUUUAGAUAGCCGGAGACAGCUCUUCAGUUCCCAUAAACUCAUCGAAUGUGAUACUCUUUCCAGGAAAAACAACAGAGGAUUGAGCAUCA
B11: chr4:186588032:186588133:-|3pUTR|ENSG00000083857|msi1|FALSE|unique (ssRNA)
RNA: GGGAGUUCUACAGUCCGACGAUCUUUUUUUACUAUAACCAGGGUUUCAUUCUGUCUUUUUCCACUGAAGUGUGACAUUUUGUUAGUACAUUUCAGUGUAGUCAUUCAUUUCUAGCUGUACAUAGGAUGAAGGAGAGAUCAGAUCAACAGAGGAUUGAGCAUCA
B12: chr6:105097214:105097376:-|3pUTR|ENSG00000112276|msi1|total|mutant (ssRNA)
RNA: GGGAGUUCUACAGUCCGACGAUCCAUGCCUUGGUUUCCUCUCCCUUCCCUCUUUCCAAUCCUGGUUUCCUAACCUCCUCUUGCCGUAAUUCUCAACUCAACUCAAAGUCCCAAGAAUUUGGAAUGGCCGGAUGCUGUGCGGGGCAACAGAGGAUUGAGCAUCA
B13: chr7:5527443:5527567:-|3pUTR|ENSG00000075624|msi1_unk|FALSE|overlapping (ssRNA)
RNA: GGGAGUUCUACAGUCCGACGAUCCAUCCCCCAAAGUUCACAAUGUGGCCGAGGACUUUGAUUGCACAUUGUUGUUUUUUUAAUAGUCAUUCCAAAUAUGAGAUGCGUUGUUACAGGAAGUCCCUUGCCAUCCUAAAAGCCACCCAACAGAGGAUUGAGCAUCA
B14: chr1:119916538:119916684:-|CDS|ENSG00000134250|unk|FALSE|bound_elsewhere (ssRNA)
RNA: GGGAGUUCUACAGUCCGACGAUCAGAGACACCUCUGUUUCUUGCUGCCCGGGAGGGGAGCUAUGAAGCAGCCAAGAUCCUGUUAGACCAUUUUGCCAAUCGAGACAUCACAGACCAUAUGGAUCGUCUUCCCCGGGAUGUGGCCAACAGAGGAUUGAGCAUCA
B15: chr7:6403584:6403671:+|3pUTR|ENSG00000136238|msi1_unk|FALSE|overlapping (ssRNA)
RNA: GGGAGUUCUACAGUCCGACGAUCUUUUCUAGUAACUAGGUGUAAAAAUCAUGUGUUGCAGCUUUAUAGUUUUUAAAAUAUUUUAGAUAAUUCUUAAACUAUGAACCUUCUUAACAUCACUGUCUUGCCAGAUUACCGACACUGCAACAGAGGAUUGAGCAUCA
B16: chr11:118751385:118751486:-|3pUTR|ENSG00000110367|msi1|FALSE|unique (ssRNA)
RNA: GGGAGUUCUACAGUCCGACGAUCUUGAAGUCUCUUCCCUUUCUACCCAGUACUCGAGCCCAGGGCUAGAAGUUGAAACUCACUAGUAAUGUUAAACACCAUUUUUUUUUUCUUUUUGGGGAGGAGUUGAUAUGCAACUGCAGUCAACAGAGGAUUGAGCAUCA
B17: ENSG00000070961:be:win_5051|3pUTR|ENSG00000070961|bound_else_gene|NA|bound_elsewhere_windowed (ssRNA)
RNA: GGGAGUUCUACAGUCCGACGAUCUUGAAUUUAGUUUGUCUAAAAUAGUCUCACAGGUAAAAAACAUAACAACAAUGACCACCAUUGUCUUUGAUACAUUUAUUUUAAUUCUUAAGUGGCCAAAUAACAGAUUAGGUAAAAUGACAACAGAGGAUUGAGCAUCA
B18: chr10:106575406:106575507:-|3pUTR|ENSG00000108018|unk|FALSE|unique (ssRNA)
RNA: GGGAGUUCUACAGUCCGACGAUCUUAUGGACUGGGCAAAGCCCACUAUAAACUAUAGGAGAAAGAAGUUCUGAUAAACCUCUUAGUAUGCUCAGCCUCCUUCUUUGCUAUGUCCCUAAGCCAACAGGGUAUAACACAGGCCCUCAACAGAGGAUUGAGCAUCA
B19: chrX:47636291:47636398:-|3pUTR|ENSG00000126767|unk|FALSE|unique (ssRNA)
RNA: GGGAGUUCUACAGUCCGACGAUCGCCUGCCCUUGGGGAGAUGAGGGAGCCCUGUCUGCGUUUUUGGAUGUGAGUAGAAGAGUUAGUUUGUUUUGUUUUAUUAUUCCUGGCCAUACUCAGGGGUCCAGGAAGAAUUUGUACCAUCAACAGAGGAUUGAGCAUCA
B20: chrX:153695679:153695780:+|3pUTR|ENSG00000130821|msi1|FALSE|unique (ssRNA)
RNA: GGGAGUUCUACAGUCCGACGAUCGGCAGCAGAACCAAGGCAAAUAUUUCAGCUGGGCUAUACCCCUCUCCCCAUCCCUGUUAUAGAAGCUUAGAGAGCCAGCCAGCAAUGGAACCUUCUGGUUCCUGCGCCAAUCGCCACCAGCAACAGAGGAUUGAGCAUCA
B21: ENSG00000168003:stop:overlap|stop_codon|ENSG00000168003|stop_codon|NA|stop_codon (ssRNA)
RNA: GGGAGUUCUACAGUCCGACGAUCCUGACAUCCCAGGGGCUGUAAGUGCCAACAUGACUGUGAAGGUAAGAGUUCUAGAUGGGUAGAAACUGACCGGUGGAGGGUGGGCUGGGCUUGUAGAAGUCUGUACCCAGGGGAGCCCCUCAACAGAGGAUUGAGCAUCA
B22: chr8:97851660:97851768:+|3pUTR|ENSG00000104341|msi1_unk|total|mutant (ssRNA)
RNA: GGGAGUUCUACAGUCCGACGAUCAUUAACUGCCGAAUUCUUCCUGUACGAUUGGGGAUAUAAUGGGCUUCACUAACCUUCCCCCGGCAUUGAAACUUCCCCCAAAUCUGAUGGACCCCGAAGUCUGCUUUUGUACCUGCUGGGCAACAGAGGAUUGAGCAUCA

Target: T1, UNK ZnF1-6 (called full-length)
Test: nsRBNS (natural sequence RNA bind-n-seq); RBNS binding buffer (assumed for nsRBNS): 25 mM Tris pH 7.5, 150 mM KCl, 3 mM MgCl2, 0.01% Triton X-100, 500 ug/ml BSA, 20 U/ml SUPERase-In, 4 C; UNK is unkempt and MSI1 is Musashi-1; names of the RNAs are library labels; protein concentration not given here; high values mean tight binding

Binder | binding signal [enrichment R]
B1 | 8.88
B2 | 0.824
B3 | 0.762
B4 | 1.29
B5 | 0.603
B6 | 0.684
B7 | 1.36
B8 | 12.2
B9 | 2.5
B10 | 0.312
B11 | 1.31
B12 | 0.905
B13 | 0.814
B14 | 1.27
B15 | 3.16
B16 | 5.51
B17 | 4.11
B18 | 0.662
B19 | 8.09
B20 | 1.04
B21 | 0.906
B22 | 0.597
